Experiment [1] deals with T1, CXCR7 (HA tagged) overexpressed in HEK 293T cells (UniProt P56485 1-362).
T1 construct: CXCR7 (C-X-C chemokine receptor type 7), HA tagged, overexpressed from an expression plasmid in HEK 293T cells; source: HEK 293T, transfected, in lysate
As to the kind of experiment: ELISA; saturation binding: lysates of HEK 293T cells overexpressing the receptor loaded onto high-affinity-binding ELISA plates coated with anti-HA antibody; serial dilutions of AP-conjugated ligand (or AP alone); AP activity read; Scatchard analysis; n=3. To be noted: one partner purified.

The target of experiment [2] is T2, CXCR4 (HA tagged) overexpressed in HEK 293T cells (UniProt P70658 1-359).
T2 construct: CXCR4 (C-X-C chemokine receptor type 4), HA tagged, overexpressed in HEK 293T cells; source: HEK 293T, transfected, in lysate
Described as above. To be noted: one partner purified.

T1 sequence (P56485 whole entry): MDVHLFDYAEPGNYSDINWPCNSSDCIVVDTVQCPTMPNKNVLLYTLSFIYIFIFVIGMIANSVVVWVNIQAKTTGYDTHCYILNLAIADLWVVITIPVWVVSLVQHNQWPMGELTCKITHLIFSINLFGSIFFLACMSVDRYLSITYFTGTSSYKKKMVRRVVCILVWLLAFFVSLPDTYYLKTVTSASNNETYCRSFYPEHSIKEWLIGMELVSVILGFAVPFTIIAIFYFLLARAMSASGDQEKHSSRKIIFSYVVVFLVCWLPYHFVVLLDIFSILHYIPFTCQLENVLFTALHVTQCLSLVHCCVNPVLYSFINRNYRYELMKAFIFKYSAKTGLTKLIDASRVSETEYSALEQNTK
T2 sequence (P70658 whole entry): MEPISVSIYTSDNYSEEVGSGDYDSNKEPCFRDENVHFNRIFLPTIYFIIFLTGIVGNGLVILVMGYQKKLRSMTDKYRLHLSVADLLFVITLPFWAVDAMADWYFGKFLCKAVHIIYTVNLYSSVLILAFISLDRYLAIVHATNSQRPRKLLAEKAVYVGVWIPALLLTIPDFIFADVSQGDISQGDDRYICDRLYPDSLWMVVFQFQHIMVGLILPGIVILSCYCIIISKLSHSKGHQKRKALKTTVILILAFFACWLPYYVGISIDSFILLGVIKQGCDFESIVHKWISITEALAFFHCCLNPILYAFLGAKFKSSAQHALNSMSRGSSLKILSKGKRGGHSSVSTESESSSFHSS

B1: Sdf-1α-AP (stromal cell-derived factor 1α conjugated with alkaline phosphatase) (ligand)
chain: not shown
notes: Sdf-1α (stromal cell-derived factor 1α) chemokine conjugated with alkaline phosphatase (AP)
B1: the Kd was 4.93 nM in experiment [1] and 10.1 nM in experiment [2].

By Kd is commonly meant the free concentration of one partner at which half of the binding sites on the other are occupied at equilibrium, for simple one-to-one binding.

(Values after PMC6092110, “Binding of Dickkopf-3 to CXCR7 Enhances Vascular Progenitor Cell Migration and Degradable Graft Regeneration” (Circulation Research, 2018).)
